Values marked as one replicate rest on one cluster of the flow cell; about a third of the high ones do not repeat.
Test system: ATP
Test: switch fluorescence ratio, 500 uM ATP over buffer (Cy3 cluster intensity, sum of 5 cycles each) (fold (ratio)); higher = stronger signal-on switching upon ATP binding; sequences stand for … in TCGTCGGCAGCGTCAGATGTGTATAAGAGACAGTTTTTTTTTTTTTTTTTTTTTTTTT…TC
Details: aptamer strand: ATP DNA aptamer (quencher-CACCTGGGGGAGTATTGCGGAGGAAGG + anchor), 100 nM annealed; ATP concentration: 500 uM; one replicate
Method in brief: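 Cy3-labelled switching-strand clusters on a modified Illumina MiSeq flow-cell were annealed to 100 nM quencher-labelled ATP aptamer, imaged in selection buffer, then imaged after 15 min with 500 uM ATP at 22 °C. Five buffer/ATP cycles ran, with NaOH stripping and re-annealing between them. The fluorescence ratio is summed target-cycle over summed buffer-cycle Cy3 intensity per cluster, averaged per switch-domain sequence. Clusters outside 100-1000 RFU were excluded.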
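Note: ATP exposure 15 min at 22 °C before imaging.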

Sequence: AACGGGGCCT
- switch fluorescence ratio: 1.05

Sequence: AATAGGTGCT
- switch fluorescence ratio: 1.08

Sequence: TTATCGGCTA
- switch fluorescence ratio: 1.05

Sequence: AATTTCGCCA
- switch fluorescence ratio: 1.06

Sequence: GGAGTTGCTT
- switch fluorescence ratio: 0.997

Sequence: CCGACCCTCA
- switch fluorescence ratio: 2.31

Sequence: GTGGGGGCCA
- switch fluorescence ratio: 1

Sequence: GATCGGGTGT
- switch fluorescence ratio: 0.988

Sequence: GGTACTGTTA
- switch fluorescence ratio: 1.05

Sequence: CGGAAGGTAT
- switch fluorescence ratio: 0.974

Sequence: GGCGACACAT
- switch fluorescence ratio: 1

Sequence: GCTCATTCAT
- switch fluorescence ratio: 0.995

Sequence: GCAGTGCCCG
- switch fluorescence ratio: 0.989

Sequence: AGCTTCCTCA
- switch fluorescence ratio: 2.65

Sequence: GGCTATGTA
- switch fluorescence ratio: 0.976

Sequence: AGGGTTTGAA
- switch fluorescence ratio: 0.935

Sequence: GCTTGTCAGA
- switch fluorescence ratio: 0.994

Sequence: CGAATGTAGG
- switch fluorescence ratio: 0.954

Sequence: AGGGACAAGC
- switch fluorescence ratio: 1.01

Sequence: CGTATCCTGG
- switch fluorescence ratio: 0.961

Sequence: GAGTATGTGA
- switch fluorescence ratio: 0.964

Sequence: TGCTACTGGG
- switch fluorescence ratio: 0.933

Sequence: CAGGAGATAG
- switch fluorescence ratio: 1.06

Sequence: GATGAAGGGG
- switch fluorescence ratio: 1.06

Sequence: TGGCGACAAG
- switch fluorescence ratio: 1.03

Sequence: ACCATTAAAT
- switch fluorescence ratio: 0.979

Sequence: CTTCTTTCGG
- switch fluorescence ratio: 1.03

Sequence: CGGCTGTGAC
- switch fluorescence ratio: 1.05

Sequence: AGAACGGCAC
- switch fluorescence ratio: 1.79

Sequence: TACCCTTGGA
- switch fluorescence ratio: 1.02

Sequence: GAATCAGATC
- switch fluorescence ratio: 0.999

Sequence: ACATTGGCAC
- switch fluorescence ratio: 1.04

Sequence: ATCGGGTGGC
- switch fluorescence ratio: 1.01

Sequence: GCAACAGGAC
- switch fluorescence ratio: 1.29

Sequence: CTGTCGCATT
- switch fluorescence ratio: 2.86

Sequence: ATACAGCGGC
- switch fluorescence ratio: 1.05

Sequence: GACTGAGAAC
- switch fluorescence ratio: 1.01

Sequence: ACGGCATTGT
- switch fluorescence ratio: 1.12

Sequence: AACCGTGATT
- switch fluorescence ratio: 1.03

Sequence: ATTCCGATTT
- switch fluorescence ratio: 1.05

Sequence: CGGAGGTTG
- switch fluorescence ratio: 1.02

Sequence: GAGATAAGGT
- switch fluorescence ratio: 0.986

Sequence: TACCCAGCT
- switch fluorescence ratio: 1.04

Sequence: TAAAATACCC
- switch fluorescence ratio: 1.05

Sequence: TCGCCCGGGA
- switch fluorescence ratio: 1.03

Sequence: TCAGGTACTT
- switch fluorescence ratio: 1.03

Sequence: TTAATTTTAA
- switch fluorescence ratio: 0.989

Sequence: GGTATCGCCC
- switch fluorescence ratio: 0.945

Sequence: AGTTAGAGTT
- switch fluorescence ratio: 0.992

Sequence: TAGAGATTAA
- switch fluorescence ratio: 0.985

Sequence: ATGACGAGGT
- switch fluorescence ratio: 1.03

Sequence: AATGCATGAA
- switch fluorescence ratio: 1.04

Sequence: GTGGATTTTG
- switch fluorescence ratio: 0.974

Sequence: CAAATGACAG
- switch fluorescence ratio: 0.967

Sequence: AGGGTCATTG
- switch fluorescence ratio: 0.986

Sequence: CCGAGATGAC
- switch fluorescence ratio: 2.89

Sequence: CGTGATTAGG
- switch fluorescence ratio: 1.03

Sequence: CGGCCAGAGG
- switch fluorescence ratio: 0.989

Sequence: TGACAAATTA
- switch fluorescence ratio: 1.09

Sequence: ATGCCCACAC
- switch fluorescence ratio: 1.19

Sequence: ACTATCACCC
- switch fluorescence ratio: 1.19

Sequence: CTCCTGTAGC
- switch fluorescence ratio: 1.45

Sequence: GCTGCGTACG
- switch fluorescence ratio: 0.993

Sequence: TGCGTTTTTG
- switch fluorescence ratio: 0.968

Sequence: CAAATTAGAA
- switch fluorescence ratio: 0.98

Sequence: GTAATGGAGC
- switch fluorescence ratio: 0.956

Sequence: ATAAAGTCGG
- switch fluorescence ratio: 1.02

Sequence: TACTAATGAA
- switch fluorescence ratio: 1.12

Sequence: ATGTTAGTTT
- switch fluorescence ratio: 0.996

Sequence: GCTTGGAGAC
- switch fluorescence ratio: 0.971

Sequence: TAATCCTTGC
- switch fluorescence ratio: 1.88

Sequence: TCACTTCTTA
- switch fluorescence ratio: 1.05

Sequence: CATTTAGTAC
- switch fluorescence ratio: 0.988

Sequence: TTGCATCCCT
- switch fluorescence ratio: 0.982

Sequence: GGCCTCTTAA
- switch fluorescence ratio: 1.01

Sequence: CAGCAAAGAG
- switch fluorescence ratio: 1.28

Sequence: AACGCGCCGG
- switch fluorescence ratio: 1.02

Sequence: ATCGTACCAA
- switch fluorescence ratio: 1.14

Sequence: GTGGTGCATC
- switch fluorescence ratio: 1.01

Sequence: ACTAACACCT
- switch fluorescence ratio: 1.41

Sequence: GTTGAACGAG
- switch fluorescence ratio: 0.976

Sequence: GTCGCTTTTG
- switch fluorescence ratio: 0.993

Sequence: CTATGACAAC
- switch fluorescence ratio: 0.966

Sequence: TTTCTGACGA
- switch fluorescence ratio: 2.16

Sequence: GATTTTGGCA
- switch fluorescence ratio: 0.989

Sequence: AGTCTAGAGT
- switch fluorescence ratio: 1.03

Sequence: AGGGGGTGAA
- switch fluorescence ratio: 1.02

Sequence: CCGGAGGCTG
- switch fluorescence ratio: 1.04

Sequence: TGCATTCAAC
- switch fluorescence ratio: 1.04

Sequence: GGGGTACCGC
- switch fluorescence ratio: 0.97

Sequence: ACGGTACG
- switch fluorescence ratio: 0.997

Sequence: TGTTGATTAA
- switch fluorescence ratio: 0.985

Sequence: AGACGTAGGC
- switch fluorescence ratio: 1.02

Sequence: AAGCAGGTGA
- switch fluorescence ratio: 1.38

Sequence: TTGTTTAAAT
- switch fluorescence ratio: 0.999

Sequence: TTAGCCCTTT
- switch fluorescence ratio: 1.02

Sequence: TTGAATTACC
- switch fluorescence ratio: 1.03

Sequence: TGTGTTATAT
- switch fluorescence ratio: 1.02

Sequence: GAACCTATAT
- switch fluorescence ratio: 1.05

Sequence: AATTGCGACC
- switch fluorescence ratio: 1.07

Sequence: GTGTAAACTA
- switch fluorescence ratio: 1.03

Sequence: GAGATAACG
- switch fluorescence ratio: 0.945

Sequence: CGAGTTTC
- switch fluorescence ratio: 1

Sequence: CCTTATTTT
- switch fluorescence ratio: 1

Sequence: TTAATTATTC
- switch fluorescence ratio: 0.968

Sequence: AAGAAGGCGT
- switch fluorescence ratio: 0.998

Sequence: CTCGCTCGGC
- switch fluorescence ratio: 1.22

Sequence: AGTAAATTAG
- switch fluorescence ratio: 1.02

Sequence: CGTATTGGAT
- switch fluorescence ratio: 0.993

Sequence: TTGTTGGATG
- switch fluorescence ratio: 0.993

Sequence: GGTCTGAGCG
- switch fluorescence ratio: 1.03

Sequence: TGCCCCCATT
- switch fluorescence ratio: 0.945

Sequence: TACGGCCTAA
- switch fluorescence ratio: 0.993

Sequence: TCCGGGCGTA
- switch fluorescence ratio: 1.05

Sequence: CCTGTTGACG
- switch fluorescence ratio: 1.01

Sequence: AACTCGTTCG
- switch fluorescence ratio: 0.966

Sequence: AGGCTACGTA
- switch fluorescence ratio: 1.05

Sequence: GTGCCTCAAG
- switch fluorescence ratio: 1.03

Sequence: TCCCGAATTG
- switch fluorescence ratio: 1.02

Sequence: ACTTGTGAGG
- switch fluorescence ratio: 0.958

Sequence: TCGCTCGACT
- switch fluorescence ratio: 1.12

Sequence: GAATCCCGCA
- switch fluorescence ratio: 1.96

Sequence: ACGTAGGAGC
- switch fluorescence ratio: 1.13

Sequence: TTTGAGCGTG
- switch fluorescence ratio: 0.949

Sequence: CTGCGCAAAA
- switch fluorescence ratio: 3.49

Sequence: GACGGGAACA
- switch fluorescence ratio: 1.31

Sequence: GGTTACGCA
- switch fluorescence ratio: 1.07

Sequence: ATACAGACTG
- switch fluorescence ratio: 0.966

Sequence: CAGTCCTCGG
- switch fluorescence ratio: 1.07

Sequence: TCATACGGCT
- switch fluorescence ratio: 1.03

Sequence: TAGAAATGCT
- switch fluorescence ratio: 1.03

Sequence: AATTGTCAAC
- switch fluorescence ratio: 0.96

Sequence: AAAGCGTCGT
- switch fluorescence ratio: 0.975

Sequence: CAATAGGTTT
- switch fluorescence ratio: 1.02

Sequence: CACATGCATC
- switch fluorescence ratio: 1.12

Sequence: CGCAGAGGTG
- switch fluorescence ratio: 1.48

Sequence: GGGCGTCGAC
- switch fluorescence ratio: 0.999

Sequence: TACTATCGAT
- switch fluorescence ratio: 0.995

Sequence: TGGTTGCCGG
- switch fluorescence ratio: 1.03

Sequence: TCTACATACG
- switch fluorescence ratio: 1.42

Sequence: TTAGTAGTCC
- switch fluorescence ratio: 1.02

Sequence: TCAAATTTCC
- switch fluorescence ratio: 1.04

Sequence: CTCGGCTCTG
- switch fluorescence ratio: 0.984

Sequence: GGGGATCTT
- switch fluorescence ratio: 0.994

Sequence: AATAATTTAT
- switch fluorescence ratio: 0.98

Sequence: CCGCCATGCA
- switch fluorescence ratio: 2.72

Sequence: TTCTATGGCC
- switch fluorescence ratio: 1.03

Sequence: TATAGAGCTT
- switch fluorescence ratio: 1.07

Sequence: ATTTATGGAC
- switch fluorescence ratio: 0.967

Sequence: GCCAGTTACC
- switch fluorescence ratio: 1.06

Sequence: TTTTTCGACT
- switch fluorescence ratio: 0.977

Sequence: CGATGCCACG
- switch fluorescence ratio: 1.05

Sequence: TGCTTCGGTC
- switch fluorescence ratio: 1.01

Sequence: CGGAAAATAA
- switch fluorescence ratio: 1.03

Sequence: TGCACGGATT
- switch fluorescence ratio: 1.08

Sequence: TATCCGTGCC
- switch fluorescence ratio: 1.1

Sequence: TGCTCGCCGT
- switch fluorescence ratio: 1.11

Source: the supplement of paper PMC10126150
